{"source": "PubChem BioAssay AID686979", "about": "(National Center for Advancing Translational Sciences (NCATS), 2013)", "note": "Several values for one entry are separate records, joined by “and”; a condition that tells them apart may be missing. Identical values can stand only once. Screen size: about 420,000 compounds; about 50,000 (12%) were called active. Inconclusive results, whose numbers are uncertain, are shown with a selection of clear calls. Calls come from the whole dose curve; as a rule, active = well fitted inhibition curve with a large enough effect; inconclusive = small, poorly fitted or top-dose-only effect; inactive = flat fitted curve, though single readings scatter. A potency beside an inconclusive call is a rough fit, not a confirmed value. Some compounds were tested as several samples or in several runs, with calls that do not always agree. % is set by controls: 0 for no effect and ±100 for the full control effect; potency is the fitted concentration of half-maximal effect; tags give direction and shape of the fitted curve."}
{"assay": "qHTS for Inhibitors of human tyrosyl-DNA phosphodiesterase 1 (TDP1): qHTS in cells in presence of CPT; note: nearly all actives have a fitted effect of over 55% in size", "details": "chicken DT40 Tdp1-/-;hTDP1 cells + 20 nM CPT, ATP luminescence, 48 h; activity change, negative = growth inhibition: at 46.2 µM (top of the series) unless noted", "in_short": "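Cell growth measured by CellTiter-Glo luminescence after a minimum 48 h, 37 C compound exposure with 20 nM CPT in Tdp1-knockout DT40 cells stably expressing hTDP1, seeded 400/well; qHTS titration format.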"}
{"compound": "CC(C)(C)OC(=O)N1CCCN(C(=O)Nc2ccc(C(F)(F)F)cc2)CC1", "Potency": "inconclusive: 5.8 µM [inhibitor, partial curve, poor fit]"}
{"compound": "CCCN(CCC)C(=O)Cn1c(=O)n(CCCCCC(=O)Nc2ccccc2)c(=O)c2sccc21", "Potency": "inactive and inconclusive: 29.1 µM [inhibitor, single point]"}
{"compound": "COc1ccccc1NC(=O)c1nnn(Cc2ccccc2)c1NC(C)=O", "activity change, negative = growth inhibition": "inactive: -16.3%"}
{"compound": "O=C(/C=C/c1cccs1)NC1CCS(=O)(=O)C1", "note": "(configuration not stated)", "Potency": "inconclusive: 29.1 µM [inhibitor, single point]"}
{"compound": "Cc1cc(CNC(=O)C(C)n2cc([N+](=O)[O-])cn2)c2ccccc2n1", "note": "(configuration not stated)", "Potency": "inconclusive: 5.17 µM [inhibitor, partial curve, poor fit]"}
{"compound": "COc1cc(OC)nc(NC(=O)CCl)n1", "Potency": "active: 14.6 µM"}
{"compound": "CCOC(=O)c1c(NC(=O)CCl)sc(CN(C)C)c1-c1ccccc1", "Potency": "active: 4.11 µM"}
{"compound": "CCc1sc(Nc2cccc(Cl)c2)nc1-c1cc2cccc(OC)c2oc1=O", "Potency": "inconclusive: 23.1 µM [inhibitor, single point]"}
{"compound": "CCOc1ccc(NC(=O)CSc2nc3c([nH]c4ccccc43)c(=O)n2C)cc1", "activity change, negative = growth inhibition": "inactive: -3.68%"}
{"compound": "CC(C)(C)c1cc(CN2CCN(CCC#N)CC2)cc(C(C)(C)C)c1O", "Potency": "inconclusive: 20.6 µM [inhibitor, single point]"}
{"compound": "Cc1ccc(-c2nn(C)c(=O)c3ccccc23)cc1CNC(=O)CSc1nc2ccccc2o1", "Potency": "inconclusive: 18.4 µM [inhibitor, single point]"}
{"compound": "COc1ccc(NC(=O)CN2C(=O)C(C)(C)c3cc(S(=O)(=O)N4CCCCC4)ccc32)cc1Cl", "Potency": "inconclusive: 29.1 µM [inhibitor, single point]"}
{"compound": "Cc1ccc(C(=O)NCc2ccncc2)cc1S(=O)(=O)N1CCCCC1", "Potency": "inconclusive: 29.1 µM [inhibitor, single point]"}
{"compound": "O=C(CCN1CCN(c2ccc(F)cc2)CC1)Nc1ccc(F)cc1", "Potency": "inconclusive: 29.1 µM [inhibitor, partial curve]"}
{"compound": "CCc1ccc(C(=O)CCC2CCCCC2=O)cc1", "note": "(configuration not stated)", "Potency": "inconclusive: 18.4 µM [inhibitor, single point]"}
{"compound": "Cc1c(C(=O)OCc2ccccc2)[nH]c2c1C(=O)CC(c1ccc(N(C)C)cc1)C2", "note": "(configuration not stated)", "Potency": "inconclusive: 3.26 µM [inhibitor, full curve, poor fit]"}
{"compound": "Cc1ccc(S(=O)(=O)CCC(=O)Nc2ccc(Br)cc2)cc1", "activity change, negative = growth inhibition": "inconclusive: -30.9% [inhibitor]"}
{"compound": "Cc1ccc2c(=O)n3c(nc2c1)C(Cc1ccc(O)cc1)NC(=O)c1cccnc1-3", "note": "(configuration not stated)", "activity change, negative = growth inhibition": "inactive: -4.56%"}
{"compound": "Cc1cc(C)nc(Nc2nc(C(N)Cc3ccc(F)cc3)cs2)n1", "note": "(configuration not stated)", "Potency": "active: 14.6 µM"}
{"compound": "CCc1nnc(NC(=O)C2CCCN2C(=O)NC2CCCCC2)s1", "note": "(configuration not stated)", "activity change, negative = growth inhibition": "inactive: 14.3%"}
{"compound": "COc1ccc(NC(=O)CCN2C(=O)c3ccccc3S2(=O)=O)c(OC)c1", "activity change, negative = growth inhibition": "inactive: 33.7%"}
{"compound": "C[C@H](CO)N1C[C@H](C)[C@H](CN(C)C(=O)Nc2ccc(F)cc2)Oc2c(NC(=O)c3ccc(-c4nccs4)cc3)cccc2C1=O", "Potency": "inconclusive: 18.4 µM [inhibitor, single point]"}
{"compound": "C[C@H]1CN(C2CCCCC2)C(=O)[C@@H]1CC(=O)NCc1ccccc1", "Potency": "inconclusive: 35.5 µM [inhibitor, single point]"}
{"compound": "OC(c1cccc(Cl)c1)c1nccc2ccccc12", "note": "(configuration not stated)", "activity change, negative = growth inhibition": "inactive: -23.5%"}
{"compound": "CCCCc1c(-c2ccccc2OC)ncn1CCc1ccc(Cl)cc1", "Potency": "inconclusive: 29.1 µM [inhibitor, single point]"}
{"compound": "COc1ccc(C2NC(=O)NC3=C2CCc2ccccc23)cc1", "note": "(configuration not stated)", "Potency": "inconclusive: 23.1 µM [inhibitor, single point]"}
{"compound": "Cc1nn(Cc2ccccc2)c(C)c1NC(=O)c1cc(-c2ccco2)on1", "Potency": "inconclusive: 20.6 µM [inhibitor, single point]"}
{"compound": "COc1ccc2oc(=O)c(-c3nnc(NCc4ccco4)s3)cc2c1", "Potency": "active: 5.8 µM"}
{"compound": "CCOC(=O)C1(Cc2ccccc2)CCCN(S(=O)(=O)N(C)C)C1", "note": "(configuration not stated)", "Potency": "inconclusive: 13 µM [inhibitor, single point]"}
{"compound": "O=[N+]([O-])c1ccc(NN=Cc2ccc3c(c2)OCO3)nc1", "activity change, negative = growth inhibition": "inactive: -3.84%"}
{"compound": "CCOCC(=O)Nc1c(C(=O)Nc2ccc3c(c2)OCCO3)oc2ccccc12", "Potency": "inconclusive: 18.4 µM [inhibitor, single point]"}
{"compound": "CCN(CCNC(=O)CCCn1nc(C)n2c(cc3sccc32)c1=O)c1ccccc1", "Potency": "active: 14.6 µM"}
{"compound": "CC(=O)C1=C(C)NC(SCSc2ccccc2)=C(C#N)C1c1cccnc1", "note": "(configuration not stated)", "Potency": "inconclusive: 18.4 µM [inhibitor, partial curve]"}
{"compound": "Cc1ccc(S(=O)(=O)C(CNC(=O)COc2ccccc2)c2cccs2)cc1", "note": "(configuration not stated)", "Potency": "inconclusive: 29.1 µM [inhibitor, single point]"}
{"compound": "COc1cccc(CNC(=O)CSc2nc3ccc(C)cc3[nH]2)c1", "Potency": "inconclusive: 29.1 µM [inhibitor, single point]"}
{"compound": "N=C(N)c1ccc(/C=C/c2ccc(C(=N)N)cc2O)cc1", "Potency": "active: 13 µM"}
{"compound": "CCCn1c(COc2cccc(C)c2)nc2ccccc21", "Potency": "inconclusive: 29.1 µM [inhibitor, single point]"}
{"compound": "O=c1oc2cc(O)ccc2cc1-c1nc(-c2ccc(Cl)c(Cl)c2)cs1", "activity change, negative = growth inhibition": "inactive: 0.283%"}
{"compound": "COc1ccc(-c2nc(CSCC(=O)NCCC3=CCCCC3)c(C)o2)cc1OC", "Potency": "inconclusive: 20.6 µM [inhibitor, single point]"}
{"compound": "Cc1ccc(C)c(NCCCCCCCC(=O)O)c1", "activity change, negative = growth inhibition": "inactive: -19.5%"}
{"compound": "CC(=O)NS(=O)(=O)c1ccc(NC(=O)c2cc(-c3ccc(C)c(C)c3)nc3ccccc23)cc1", "activity change, negative = growth inhibition": "inactive: 12.5%"}
{"compound": "COc1cccc(-n2c(SCC(=O)c3ccccc3)nc3c([nH]c4ccccc43)c2=O)c1", "Potency": "inconclusive: 29.1 µM [inhibitor, single point]"}
{"compound": "O=C(Cc1cccs1)N/N=C/c1ccccc1", "activity change, negative = growth inhibition": "inactive: -8.1%"}
{"compound": "Nc1nccnc1C(=O)OCC(=O)N1CCN(S(=O)(=O)c2ccc(Cl)cc2)CC1", "activity change, negative = growth inhibition": "inactive: -3.5%"}
{"compound": "COc1cccc(S(=O)(=O)NCC(=O)N2CCCC2)c1", "activity change, negative = growth inhibition": "inactive: -12.6%"}
{"compound": "Cc1cccn2c(=O)c3cc(C(=O)NCCC4=CCCCC4)n(C)c3nc12", "Potency": "inconclusive: 29.1 µM [inhibitor, single point]"}
{"compound": "CCOC(=O)C1(CCc2ccccc2)CCN(Cc2cc(OC)c(OC)cc2OC)CC1", "Potency": "active: 20.6 µM"}
{"compound": "O=C(CN1CCN(C(=O)c2ccccc2)CC1)NC(=O)NCCC1=CCCCC1", "Potency": "inconclusive: 18.4 µM [inhibitor, partial curve, poor fit]"}
{"compound": "CCN(C(=S)NCc1ccccc1)c1cccc2ccccc12", "Potency": "inconclusive: 23.1 µM [inhibitor, single point]"}
{"compound": "CCCN1CCN(CC2=C(C(=O)OCC)C(c3ccc(OC(C)C)cc3)NC(=O)N2)CC1", "note": "(configuration not stated)", "Potency": "inconclusive: 29.1 µM [inhibitor, single point]"}
{"compound": "CCNc1nc(C)cc(COC)c1C#N", "activity change, negative = growth inhibition": "inactive: -1.52%"}
{"compound": "CC/C(=N\\NC(=S)Nc1cccc(C)c1)c1ccccc1", "Potency": "active: 13 µM"}
{"compound": "CCN(C(=O)C(C)Sc1ccc(S(=O)(=O)N2CCOCC2)cn1)c1ccccc1", "note": "(configuration not stated)", "Potency": "inconclusive: 20.6 µM [inhibitor, single point]"}
{"compound": "CCCSc1nc2c([nH]1)c(=O)n(C)c(=S)n2C", "activity change, negative = growth inhibition": "inactive: 5.01%"}
{"compound": "COc1ccc(Cc2n[nH]c(=O)c3ccccc23)cc1OC", "Potency": "inconclusive: 18.4 µM [inhibitor, partial curve, poor fit]"}
{"compound": "COc1cc(NC(=O)c2ccc(N)nc2)cc(C(=O)Nc2cccc(C(F)(F)F)c2)c1", "Potency": "inconclusive: 29.1 µM [inhibitor, single point] and inconclusive: 18.4 µM [inhibitor, single point]"}
{"compound": "OCc1ccccc1-c1cnc2sc(NCc3ccc(F)cc3)nn12", "Potency": "inconclusive: 25.9 µM [inhibitor, single point]"}
{"compound": "CC(C)(C)N1CC(c2nc3ccccc3n2Cc2ccc(F)cc2)CC1=O", "note": "(configuration not stated)", "activity change, negative = growth inhibition": "inactive: -19.6%"}
{"compound": "COC(=O)c1ccccc1NC(=O)c1sc(Cl)nc1C", "Potency": "inconclusive: 25.9 µM [inhibitor, single point]"}
{"compound": "O=C1CC(C(=O)N2CCOCC2)C2(CCCCC2)O1", "note": "(configuration not stated)", "activity change, negative = growth inhibition": "inactive: -1.64%"}
{"compound": "COc1ccccc1Cn1c(=S)[nH]c2cc(C(=O)NCC3CCCO3)ccc2c1=O", "note": "(configuration not stated)", "Potency": "inconclusive: 32.6 µM [inhibitor, single point]"}
{"compound": "COC(=O)N/N=C/c1cn(CCCOc2ccc(C)cc2)c2ccccc12", "Potency": "inconclusive: 25.9 µM [inhibitor, single point]"}
{"compound": "CSc1nc2c(sc3ccccc32)c(=O)n1Cc1ccc(C)cc1", "Potency": "active: 20.6 µM"}
{"compound": "Cc1ccn2c(=O)c(C(=O)NC3CCCCC3C)c(O)nc2c1", "note": "(configuration not stated)", "Potency": "active: 16.4 µM"}
{"compound": "Cc1ccc(S(=O)(=O)NC(CC(=O)O)c2ccccc2)cc1", "note": "(configuration not stated)", "activity change, negative = growth inhibition": "inactive: -8.88%"}
{"compound": "CC1=NN(c2ccc(C)cc2C)C(=O)C1C(c1ccccc1O)C1C(=O)N(c2ccc(C)cc2C)N=C1C", "note": "(configuration not stated)", "activity change, negative = growth inhibition": "inactive: 7.08%"}
{"compound": "CN(C)/N=C/c1cn(-c2ccccc2)nc1-c1cccnc1", "activity change, negative = growth inhibition": "inactive: -32.9%"}
{"compound": "COc1ccc(-c2csc(NCCc3nc4cc(Cl)c(N5CCCCC5)cc4n3CCOCCO)n2)cc1", "Potency": "active: 23.1 µM"}
{"compound": "Cc1ccc(-c2noc(-c3ccccc3C(=O)N3CCOCC3)n2)cc1", "activity change, negative = growth inhibition": "inconclusive: -32.3% [inhibitor]"}
{"compound": "NNc1nc(-c2ccccc2Cl)nc2sc3c(c12)CCCC3", "Potency": "inconclusive: 29.1 µM [inhibitor, single point]"}
{"compound": "Cc1ccc(NC(=O)C2CCN(c3ncnc4sc(C)c(C)c34)CC2)cc1S(=O)(=O)N(C)C", "Potency": "active: 13 µM"}
{"compound": "CCCCN(Cc1ccccc1)S(=O)(=O)c1ccc2c(c1)n(C)c(=O)c(=O)n2C", "Potency": "inconclusive: 16.4 µM [inhibitor, single point]"}
